Reference: PMC12136788
The list shows a part of the results.

T1: UNK ZnF1-3 (human, UniProt Q9C0B0 31-174)
T1 sequence: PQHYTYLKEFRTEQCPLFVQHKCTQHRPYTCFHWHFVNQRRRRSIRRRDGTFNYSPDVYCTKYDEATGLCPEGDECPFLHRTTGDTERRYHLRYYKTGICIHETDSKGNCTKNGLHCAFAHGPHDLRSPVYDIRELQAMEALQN

B1: chr5:71493949:71493950:+_ENSG00000131711_ENST00000296755|hu_hu|FALSE|FALSE (ssRNA)
RNA: GGGAGUUCUACAGUCCGACGAUCUGGAGACAUUUCUGUUUCCUGGAAUGUGGUAGGUGUUUGCACAACAGACACUGAAAGGGAGUCAUCUACUUCUGUGGAAUGUGGGGAGCCAACCUCAGCAUGCAGAGAUGGAGACACAUCCAACAGAGGAUUGAGCAUCA
B2: chr22:19452774:19452775:-_ENSG00000070010_ENST00000399523|hu_hu|hu_hu_hu_mus_False|8_108 (ssRNA)
RNA: GGGAGUUCUACAGUCCGACGAUCCUUUUCAUUAUAGUUGAUAGCAAUCACAUCUCCAGUCGUCAGACAGGCGAAGUUUCUCAAUGCAUUUUCUAAUACCGCUUUAGGGUUGGUAAUAUCCAGGAAGUCAGGGCUCUGAGGCUGCAACAGAGGAUUGAGCAUCA
B3: chr1:90180419:90180420:+_ENSG00000171488_ENST00000370454|hu_hu|FALSE|FALSE (ssRNA)
RNA: GGGAGUUCUACAGUCCGACGAUCAGCCCGACAGUCACCCAGUUCAGGAGGGAGGAUUUCAAAGUGAUUACCUUUUACAUCUAAGUAGGAAAGAAAUAGCAAAUUUCCAAUUUUCGGUGAAAGUACAGAUAGGCUGUUUUUUCCCAACAGAGGAUUGAGCAUCA
B4: chr16:30615004:30615005:-_ENSG00000156853_ENST00000287461|hu_hu|motif|central (ssRNA)
RNA: GGGAGUUCUACAGUCCGACGAUCUGCUACUUAACCUGAAAACUUGGGGGCAAAGUGGUUGUGAUUAUCUGAAGGGCUGCGGUGUAGAUGAAGUAUUAAACAUGUCGUAGGCAAGGUUUAGAGGAGAAUGUGGUACUUAACCUUCAACAGAGGAUUGAGCAUCA
B5: chr1:58468927:58468928:-_ENSMUSG00000026034_ENSMUST00000148330|mus_mus|mus_mus_mus_hu_False|1_88 (ssRNA)
RNA: GGGAGUUCUACAGUCCGACGAUCAAUUACUGAAAAAGAUGUUCAUUUAUUUGGUUUUGUACUUAAUGAACCAAAUUACCCAAACAAAAUAAACAUGGCAAUAUAAAAAUGUUAAGAAUUUACAAAGCUGUACAAAAAGACUGACAACAGAGGAUUGAGCAUCA
B6: chr5:136384420:136384421:-_ENSMUSG00000051391_ENSMUST00000055808|mus_hu|motif|central (ssRNA)
RNA: GGGAGUUCUACAGUCCGACGAUCGUACGACAGCUACAUAAUGACUCACAUUCAUGAUAUUCCAUCACUGAGGAAACUGCGGAAGAUGGUCCGUGUGUGAAAUAAUUCCUUAGAGAAACACGGAGCUGGAAAAAUAAUCACUGACAACAGAGGAUUGAGCAUCA

The binders below were run against T1, UNK ZnF1-3 (assay: nsRBNS (natural sequence RNA bind-n-seq); RBNS binding buffer (assumed for nsRBNS): 25 mM Tris pH 7.5, 150 mM KCl, 3 mM MgCl2, 0.01% Triton X-100, 500 ug/ml BSA, 20 U/ml SUPERase-In, 4 C; UNK is unkempt and MSI1 is Musashi-1; names of the RNAs are library labels; protein concentration not given here; high values mean tight binding).
B1 gave a binding signal of 1.32 enrichment R. B2 was tested, and the binding signal was 0.891 enrichment R. B3 was tested, and the binding signal was 1.84 enrichment R. In the case of B4, the binding signal is reported as 1.73 enrichment R. B5 gave a binding signal of 1.72 enrichment R. B6 was tested, and the binding signal was 1.2 enrichment R.
